Measured values as given in article PMC9574860, “Chemical Toolkit for PARK7: Potent, Selective, and High-Throughput” (Journal of Medicinal Chemistry, 2022).
The campaign covered roughly 7,900 compounds. About 400 (5.1%) showed an effect of 50% or more. The list shows a part of the results.

target: Parkinson's disease protein 7 (PARK7/DJ1) (human, UniProt Q99497); assay: primary screen, percent inhibition; read as competition with a fluorescent probe by fluorescence polarization; higher = more effect of the substance; conditions: 100 µM
Procedure, shortened: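 Covalent fragments at 100 μM final were incubated 2 h with 0.2 μM PARK7, then 20 nM probe JYQ-107 added for a further 2 h. Fluorescence polarization read at 480/520 nm; relative FP loss versus reference controls gave remaining enzyme activity.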

Sequence of Parkinson's disease protein 7 (PARK7/DJ1) (Q99497 whole entry, looked up, the tested form may be a part): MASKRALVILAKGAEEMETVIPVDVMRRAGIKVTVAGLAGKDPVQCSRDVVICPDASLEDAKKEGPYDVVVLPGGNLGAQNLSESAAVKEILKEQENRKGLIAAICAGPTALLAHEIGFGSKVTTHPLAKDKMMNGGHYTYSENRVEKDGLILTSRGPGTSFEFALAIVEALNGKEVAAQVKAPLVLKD

| Structure (SMILES) | Inhibition % |
| --- | --- |
| CCOC(=O)c1c(NC(=O)CCl)sc(C)c1C | 2.6% |
| CC1(C)OB(c2ccc3ccc(N)cc3c2)OC1(C)C | 86.8% |
| CC1CC(Sc2nnc(C(C)(C)C)o2)C(=O)O1 (centres unmarked) | 46.1% |
| OB(O)c1ccccc1CN1CCCC1 | 5.6% |
| C=CC(=O)N1CCC(COc2ccccc2)C1 (centres unmarked) | 11.5% |
| Cc1ccc(NS(=O)(=O)CCCS(=O)(=O)F)nc1 | 80.1% |
| C=CC(=O)N1CCOC(Cn2nc(C)nc2C)C1 (centres unmarked) | 17.3% |
| C=CC(=O)N1CCSCC1C1CCC1 (centres unmarked) | 10.3% |
| Cc1cccc(-n2cc(C(=O)CCl)nn2)c1 | 95.4% |
| Cc1cc(C#N)ccc1S(=O)(=O)OCC(F)(F)F | 10.4% |
| COc1cc(C=C(C#N)c2ccccn2)ccc1O | 24% |
| CC#CCCn1cc(C#N)nn1 | 1.89% |
| Cc1ccc(C(=O)Cn2cnc(C#N)n2)s1 | 8.98% |
| CC1(C)OB([C@@H]2C[C@H]2C(=O)O)OC1(C)C (racemic) | 8.39% |
| Cc1nnnn1-c1ccc(F)c(NC(=O)CCl)c1 | 4.03% |
| N#Cc1ncn(CC(=O)c2ccc3c(c2)CCC3)n1 | 1.26% |
| C=CC(=O)NC1CCCOCC1 (centres unmarked) | -1.46% |
| O=S(=O)(c1cc(Cl)ccc1Cl)n1cccn1 | 5.69% |
| COc1ccc(C=c2sc(=CC#N)n(C)c2=O)cc1 | 4.53% |
| C=CC(=O)NCC1CNC(=O)C1 (centres unmarked) | 24.1% |
| C=CC(=O)Nc1ccccc1OC | 0.453% |
| C=CC(=O)NCC1(CF)CCOCC1 | 9.48% |
| C=CC(=O)N1CCOCC2(CC2)C1 | 33.9% |
| C=CC(=O)NC1CC(OC)C1(C)C (centres unmarked) | -3.29% |
| N#CC(=Cc1ccc(OC(F)F)cc1)C(=O)N1CCCC1 | 13.2% |

| Structure (SMILES) | Inhibition % |
| --- | --- |
| Cc1nn(C)c2ncc(NC(=O)CN3CCSC3=O)cc12 | 4.2% |
| N#Cc1cc(N)c2ccccc2n1 | 10.9% |
| Cc1cc(C=C(C#N)C(=O)O)c(C)n1C1CC1 | 8.28% |
| N#Cc1ccc2c(n1)CCCN2C(=O)[C@H]1CCCO1 | 3.86% |
| C=CC(=O)N(C)Cc1ccccc1N1CCCC1 | 4.01% |
| C=CCc1ccc(B2OC(C)(C)C(C)(C)O2)cc1 | 2.49% |
| Cc1ccc(B2OC(C)(C)C(C)(C)O2)cc1[N+](=O)[O-] | 3.85% |
| Cc1sc2nc(CS)[nH]c(=O)c2c1C | 13.9% |
| Cc1ccc(NS(C)(=O)=O)cc1B1OC(C)(C)C(C)(C)O1 | 1.38% |
| O=c1[nH]c(S)nc2[nH]ncc12 | 4.43% |
| O=C(CCl)N1CCN(C(=O)Nc2ccccc2)CC1 | 64.2% |
| COc1ccc(NC(=O)c2cccnc2S)cc1Cl | 2.9% |
| CC1(C)OB(C2CNC2)OC1(C)C.O=C(O)C(F)(F)F | 11.6% |
| N#Cc1ccc(NCCOc2ccccc2Cl)cn1 | 10.9% |
| Cc1nsc(N[C@@H]2COC(=O)C2)n1 | 5.93% |
| C=CC(=O)N1CCSC2COCCC21 (centres unmarked) | -2.53% |
| C=CC(=O)N1CCN(S(=O)(=O)C2CC2)CC1 | 5.47% |
| OB(O)c1ccc2c(c1)CCCC2 | 1.74% |
| CC1CC(Sc2nnnn2-c2ccccc2)C(=O)O1 (centres unmarked) | 3.51% |
| O=C(NCC1(O)CCc2ccccc21)c1cccnc1S (centres unmarked) | 29.7% |
| O=C(CSC(F)(F)F)Nc1cccc(S(=O)(=O)F)c1 | 99.8% |
| O=C(CCl)Nc1cc(-c2ccccc2)nn1-c1ccccc1 | 28.3% |
| CCCOc1ccc(S(=O)(=O)n2ccnc2)cc1 | 15% |
| O=C(NCCCl)C1CCCC1 | 3.24% |
| C=CC(=O)N1C[C@@H](C)O[C@@H](C)C1 | 9.55% |

| Structure (SMILES) | Inhibition % |
| --- | --- |
| CC1CCN(C(=O)CC2OCCCO2)CC1n1ccnc1 (centres unmarked) | 9.65% |
| Cn1c(SC2CCOC2=O)nnc1-c1cccs1 (centres unmarked) | 3.52% |
| O=C(CCl)Nc1nc(-c2ccccc2)cs1 | 17.9% |
| CCOc1cc(C)c(Cl)cc1S(=O)(=O)n1cnc(C)c1 | 5.28% |
| Cc1ccc(C(=O)NNC(=O)CCl)cc1 | 5.44% |
| N#CN(CCN1CCCC1=O)c1ccc(F)c(Cl)c1 | -0.128% |
| O=C(C=Cc1ccnc2ccccc12)N1CCCSCC1 | 5.8% |
| CC1(C)OB(c2cnn(C(F)(F)F)c2)OC1(C)C | -0.114% |
| CN(C)c1nccc(CNCc2ccc(B(O)O)cc2)n1 | -0.514% |
| N#Cc1cc(Oc2ccc(F)cc2)ncn1 | 6.16% |
| CCC(NC(=O)c1cccnc1S)C1CCCO1 (centres unmarked) | 12.2% |
| COc1ccc(OC(F)F)c(C=C(C#N)C(N)=O)c1 | -1.14% |
| COc1ccc(C2CO2)cc1F (centres unmarked) | 21.2% |
| CCN(C(=O)CCl)C1CC1 | 5.24% |
| COc1cnc(C#N)cc1OC | 17% |
| N#Cc1ccc(NC(=O)CN2CCSC2=O)cc1 | 5.37% |
| C=CC(=O)N1CCc2c(Cl)cc(F)cc2C1 | 5.58% |
| C=CC(=O)N1CC(N2CCCC2=O)C1 | 5.93% |
| CN(CC(=O)Nc1cccc(F)c1)c1ccc(C#N)nc1 | 4% |
| COc1ccccc1CNC(=O)n1ccnc1 | 5.2% |
| Cc1ccc(C2CO2)c(C)c1 (centres unmarked) | 7.16% |
| N#Cc1nccnc1N1CCC(CSc2ccccc2)C1 (centres unmarked) | 3.14% |
| C=CC(=O)N1CCC(c2nccs2)C1 (centres unmarked) | 10% |
| COc1ccc(N2CCN(CC3CO3)CC2)cc1 (centres unmarked) | 12.9% |
| Cc1nc(C=CC(=O)N2CCN(C)CC2C)cs1 (centres unmarked) | 9.35% |

| Structure (SMILES) | Inhibition % |
| --- | --- |
| C=CC(=O)NC1CCN(C2CCOC2)CC1 (centres unmarked) | 22% |
| C=CC(=O)N(C)Cc1c(C)nc2sc(C)cn12 | 18.9% |
| Cc1nc(Cn2c(-c3ccccc3C)noc2=O)no1 | 5.1% |
| C=CC(=O)NC(C)(C)c1cn(C)nn1 | 11.2% |
| C=CC(=O)NC1CCN(C(=O)CC)C1 (centres unmarked) | 4.56% |
| CC(C)c1cccc(C#N)n1 | 2.61% |
| Cc1ccc(S(=O)(=O)F)c2c1NCCC2 | 4.21% |
| Nc1ccccc1S(=O)(=O)F | 44.7% |
| C=CC(=O)N1CCC(C)(C)S(=O)(=O)CC1 | 9.68% |
| O=C(CCl)NC1CCCC(C(F)(F)F)C1 (centres unmarked) | 5.79% |
| O=C(CCl)Nc1cccc2cccc(C(=O)O)c12 | 11.2% |
| CC1(F)CCN(c2ccc(C#N)nc2)C1 (centres unmarked) | 11.9% |
| Cc1cnn(-c2cccc(B3OC(C)(C)C(C)(C)O3)c2)c1 | 1.38% |
| Cl.O=C(CCl)Nc1nc(CN2CCCC2)cs1 | 5.7% |
| OB(O)c1cccc(C2CCC2)c1 | -1.61% |
| COCc1cccc(CNC(=O)CCl)c1 | 4.03% |
| C=CC(=O)N1CCCC(c2nn(C)cc2C(=O)O)C1 (centres unmarked) | 0.724% |
| CC(C)(C)CC1CCCN1C(=O)CCN1C(=O)CCC1=O (centres unmarked) | 1.67% |
| O=S(=O)(Oc1ccccc1C(F)(F)F)c1c[nH]cn1 | 10.4% |
| C=CC(=O)NC1CCCSC1 (centres unmarked) | 2.15% |
| CC1(C)OB(c2cccc(OCCN3CCCC3)c2)OC1(C)C.Cl | 6.33% |
| CC1CCc2nc(NC(=O)CN3CCSC3=O)sc2C1 (centres unmarked) | 9% |
| CC(N)C1CCCN(C(=O)C=Cc2ccc(Cl)s2)C1.Cl (centres unmarked) | 8.86% |
| CC(=O)Nc1ccc(S(=O)(=O)F)cc1 | 15.8% |
| C=CC(=O)NC1COc2cccc(Cl)c21 (centres unmarked) | 9.93% |

| Structure (SMILES) | Inhibition % |
| --- | --- |
| O=C1OCCC1N1CCN(C(=O)c2ccc(F)cc2)CC1 (centres unmarked) | 7.62% |
| N#Cc1ncccc1N1CCCC(F)C1 (centres unmarked) | 6.34% |
| O=C(CCCl)Nc1cccc(Cl)c1 | -0.704% |
| N#Cc1ncn(CC(=O)N2CCc3ccccc3C2)n1 | 1.35% |
| C=CC(=O)Nc1ccc2c(c1)CCCO2 | 7.61% |
| N#Cc1ccc(N2CCC3CCCCC32)cn1 (centres unmarked) | 1.54% |
| Cc1cc(C(=O)N2CCC(B(O)O)C2)ccn1 (centres unmarked) | 24.9% |
| COc1ccc(CN2CCN(C(=O)CCl)CC2)cc1.Cl | 10.6% |
| Cc1nn(C)c(Cl)c1C=CC(=O)N1CCOC(C)C1 (centres unmarked) | 8.05% |
| ClCCNc1nc2ccccc2[nH]1 | 5.2% |
| Oc1cc(C(F)(F)F)nc(S)n1 | 6.07% |
| COc1ccc(OCC2CO2)cc1 (centres unmarked) | 27% |
| C=CC(=O)NCC(=O)Nc1ccc2c[nH]nc2c1 | 7.37% |
| C=CC(=O)N[C@H](C(=O)O)c1ccccc1 | 3.77% |
| Cc1nn(C)c(C)c1C=CC(=O)N1CCCCCC1 | 4.15% |
| C=CC(=O)N1CC(Cc2cnn(C)c2)C1 | 4.01% |
| C=CC(=O)N1CCC(C2CCOC2)C1 (centres unmarked) | 13.9% |
| C=CC(=O)N1CCN(c2ccccc2OCC)CC1 | 4.99% |
| N#CC(=Cc1csc(-c2ccsc2)n1)C(=O)O | 2.32% |
| CC(C)(C)c1ccc(C(=O)NNC(=O)CCl)cc1 | 11% |
| Cc1ccc(S(=O)(=O)n2nc(C)cc2C)cc1 | 2.3% |
| COCCc1nc(S(=O)(=O)F)n[nH]1 | 44.6% |
| CCOC(=O)C1CC1B1OC(C)(C)C(C)(C)O1 (centres unmarked) | -0.114% |
| CCN(C(=O)CCl)c1ccc(F)cc1 | 31.3% |
| C=CC(=O)N1CCC(n2ccc(C)n2)CC1 | -1.67% |
